This sample is rich in variants without activity.
B1: tRNA (parent)
chain: CUCUCGGUAGCCAAGUUGGUUUAAGGCGCAAGACUUUAAUUUAUCACUACGAAAUCUUGAGAUCGGGCGUUCGACUCGCCCCCGGGAGAUUUUUUCCUCGAGCAA

Variants of: B1
Assay: nonsense suppression (GFP-seq) (ratio to wild type); higher = more function; SUP4oc tRNA, yeast GFP reporter sort-seq
In short: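 To measure nonsense suppression, tRNA variants from a library carrying ~3% random mutations were integrated into the yeast genome alongside RFP and a GFP ochre reporter under galactose control. Growth took place in raffinose/galactose medium supplemented with 80 mg/L adenine, followed by sorting into GFP/RFP bins and Illumina sequencing of each bin (phred ≥30). For each variant with ≥100 reads and ≥30 cells, the bin median GFP/RFP values were weighted by its estimated cell share per bin and referenced to the unmutated parent tRNA.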

Nonsense suppression, ≤ 0.026:
CUCUCGGUAGCCAAGUUGGUUUAAGGCGCAACACUUUAAUUUAUCACUACGAAAUCUUGUGAACGGACGUUCGACUCGCCCCCGGGAGAUUUUUUCCUCGAGCAA
CUCUCGGUAGCCAAGUUGGUUUAAGGCGCAACACUUUAAUUUAUCACUACGAAAUGUCAUGAUCGGGCGUUCGACUCUCCCCCGGGAGAUUUUUUCCUCGAGCAA
CUCUCGGUAGCCAAGUUGGUUUAAGGCGCAACACUUUAAUUUAUCACUACGAAAUCUUGGGACCGGGCAUUCGACUCGCCCCCGGGAGAUUUUUUCCUCGAGCAA
CUCUCGGUAGCCAAGUUGGUUUAAGGCGCAACAAUUUAAUUUAUCACUACGAAAUCUUGAGAUCGGGCGUUCGACUCGCCCCCGGGAGAUUUUUUCCUCGAGCAA
CUCUCGGUAGCCAAGUUGGUUUAAGGCGCAACACUUUAAUUUAUCACUACGAAAUCUUGAGAUGGGGCGUUCGACUCGCCCCCGGGAGAUUUUUUCCUCGAGCAA
CUCUCGGUAGCCAAGUUGGUUUAAGGCGCAACACUUUAAUUUAUCACUACGAAAUCUUGAGAUAGGGCGUUCGACUCGCCCCCGGGAGAUUUUUUCCUCGAGCAA
CUCUCGGUAGCCAAGUUGGUUUAAGGCGCAACACUUUAAUUUAUCACUACGAAAUCUUGAGGUCGGGCGUUCGACUCGCUCCCGGGAGAUUUUUUCCUCGAGCAA
CUCUCGGUAGCCAAGUUGGUUUAAGGCGCAACACUUUAAUUUAUCACUACGAAAUCUUGAGAUCGGGCGUGCGACUCGCCCCCGGGAGAUUUUUUCCUCGAGCAA
CUCUCGGUAGCCAAGUUGGUUUAAGGCGCAACACUUUAAUUUAUCACUACGAAAUCUUGAGAUCGGGCGUACGACUCGCCCCCGGGAGAUUUUUUCCUCGAGCAA
CUCUCGGUAGCCAAGUUGGUUUAAGGCGCAACACUUUAAUUUAUCACUACGAAAUCAUGAGAUCGGGCGUUCGACUCGCCCCCGGGAGAUUUUUUCCUCGAGCAA
CUCUCGGUAGCCAAGUUGGUUUAAGGCGCAAUACUUUAAUUUAUCACUACGAAAUCUUGAGAUAGGGCGUUCGACUCGCCCCCGGGAGAUUUUUUCCUCGAGCAA
CUCUCGGUAGCCAAGUUGGUUUAAGGCGCAAUACUUUAAUUUAUCACUACGAAAUCUUGAGCCCGGGCGUUCGACUCGCCCCCGGGAGAUUUUUUCCUCGAGCAA
CUCUCGGUAGCCAAGUUGGUUUAAGGCGCAAUACUUUAAUUUAUCACUACGAAAUCUUGAAAUCGGGCGGUCGACUCGCCCCCGGGAGAUUUUUUCCUCGAGCAA
CUCUCGGUAGCCAAGUUGGUUUAAGGCGCAACACUUUAAUUUAUCACUACGAAAUCUUGAGAUCGGGCGUUCGACGCGCCCCCGGGAGAUUUUUUCCUCGAGCAA
CUCUCGGUAGCCAAGUUGGUUUAAGGCGCAACACUUUAAUUUAUCACUACGAAAUCUUGAGGUCGGGCGUUCGACUCGCCCCCGGGAGAUUUUUUCCUCGAGCAA
CUCUCGGUAGCCAAGUUGGUUUAAGGCGCAACACUUUAAUUUAUCACUACGAAAUCGUGCGAUCGGGCGUUCGACUCGCCCCCGGGAGAUUUUUUCCUCGAGCAA
CUCUCGGUAGCCAAGUUGGUUUAAGGCGCAACACUUUAAUUUAUCACUACGAAAUCUAGAGAUCGGGCGUUCGACUCGCCCGCGGGAGAUUUUUUCCUCGAGCAA
CUCUCGGUAGCCAAGUUGGUUUAAGGCGCAACACUUUAAUUUAUCACUACGAAAUCUUGAGAUCGGGCGUUCGAGUCGCCCCCGGGAGAUUUUUUCCUCGAGCAA
CUCUCGGUAGCCAAGUUGGUUUAAGGCGCAACACUUUAAUUUAUCACUACGAAAUCUUGAGAUCGGGCGUUCGAUUCGCCCCCGGGAGAUUUUUUCCUCGAGCAA
CUCUCGGUAGCCAAGUUGGUUUAAGGCGCAACACUUUAAUUUAUCACUACGAAAUCUUGAGAUCGGGCGUUCGACUCGCACCCGGGAGAUUUUUUCCUCGAGCAA
CUCUCGGUAGCCAAGUUGGUUUAAGGCGCAAAACUUUAAUUUAUCACUACGAAAUCUUGAGAUCGGGCGAUCGACUCGCCCGCGGGAGAUUUUUUCCUCGAGCAA
CUCUCGGUAGCCAAGUUGGUUUAAGGCGCAACACUUUAAUUUAUCACUACGAAAUCUUGAGAUCGGGCGUUCGACUCGCCCCCGGUAGAUUUUUUCCUCGAGCAA
CUCUCGGUAGCCAAGUUGGUUUAAGGCGCAAUACUUUAAUUUAUCACUACGAAAUCUUGAGAUCGGGCGUUCGACUAGCCCCCGGGAGAUUUUUUCCUCGAGCAA
CUCUCGGUAGCCAAGUUGGUUUAAGGCGCAAUACUUUAAUUUAUCACUACGAAAUCUUGAGAUCGGGCGUUCGACUGGCCCCCGGGAGAUUUUUUCCUCGAGCAA
CUCUCGGUAGCCAAGUUGGUUUAAGGCGCAACACUUUAAUUUAUCACUACGAAAUCUUGAGAUCGGGCGUUCGACUCGCCGCCGGGAGAUUUUUUCCUCGAGCAA
CUCUCGGUAGCCAAGUUGGUUUAAGGCGCAAUACUUUAAUUUAUCACUACGAAAUCUUGAGAUCGGGCGUUCGACUCGCCCCCGGGAGAUUUUUUCCUCGAGCAA
CUCUCGGUAGCCAAGUUGGUUUAAGGCGCAACACUUUAAUUUAUCACUACGAAAUCUUGAGAUCGGGCGUUCGACUCGCCCCCGGGAGAUUUUUUCCUCGAGCAA

From the RNAGym collection of RNA variant scans (doi:10.1101/gad.245936.114)
